Experimental data published in PubChem BioAssay AID485294 (National Center for Advancing Translational Sciences (NCATS), 2010).
Out of some 370,000 compounds screened, about 150 (0.041%) were called active. Inconclusive results, whose numbers are uncertain, are shown with a selection of clear calls. Calls come from the whole dose curve; as a rule, active = well fitted inhibition curve with a large enough effect; inconclusive = small, poorly fitted or top-dose-only effect; inactive = flat fitted curve, though single readings scatter. Potencies of inconclusive entries are left out as doubtful fits.

Target: Beta-lactamase (Escherichia coli (strain K12)) (UniProt P00811)
Assay: qHTS Inhibitors of AmpC Beta-Lactamase (assay with detergent); note: nearly all actives have a fitted effect of over 25% in size
Settings: AmpC hydrolysis of nitrocefin, absorbance 480 nm, 0.01% Triton; series mostly up to 114 µM
Summary of the method: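 20 mM phosphate pH 7.0 + 0.01% (detergent screen) or 0.0001% Triton X-100; 5.3 nM AmpC reagent; cpd preinc 15 min RT; nitrocefin (800 uM stock) to start; A480 q20 s × 4 min; Activity was normalised to no-enzyme and no-compound control wells.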
Potency is the fitted concentration of half-maximal effect; tags give direction and shape of the fitted curve.

Sequence of UniProt P00811 (P00811 whole entry, looked up): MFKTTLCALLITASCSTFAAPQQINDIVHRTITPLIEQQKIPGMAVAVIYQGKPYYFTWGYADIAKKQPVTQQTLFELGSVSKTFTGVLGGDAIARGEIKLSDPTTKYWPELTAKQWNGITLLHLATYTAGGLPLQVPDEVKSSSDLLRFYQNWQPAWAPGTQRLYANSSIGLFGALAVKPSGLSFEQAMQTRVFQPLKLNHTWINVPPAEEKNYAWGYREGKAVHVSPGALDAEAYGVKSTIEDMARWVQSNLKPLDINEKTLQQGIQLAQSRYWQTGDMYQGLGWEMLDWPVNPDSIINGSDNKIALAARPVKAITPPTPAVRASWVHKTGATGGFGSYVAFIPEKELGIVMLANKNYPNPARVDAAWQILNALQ

SMILES	Potency
O=C(Cc1ccc(Cl)c(Cl)c1)Nc1ccccc1N1CCCC1	inactive
COc1ccc(OCC(=O)Nc2nccs2)cc1	inconclusive [inhibitor, single point]
CCn1nc(C)c(Oc2ccccc2O)c1C	inconclusive [inhibitor, single point]
CC(C)(C)c1ccc(C(=O)Nc2cccc(S(=O)(=O)NC3=NCCC3)c2)cc1	inconclusive [inhibitor, full curve, poor fit]
COc1ccc(C2CC(c3ccccc3)Nc3ncnn32)cc1 (stereo unspecified)	inconclusive [inhibitor, partial curve, poor fit]
O=S(=O)(NCCc1cn2ccccc2n1)c1cccs1	inconclusive [inhibitor, partial curve, poor fit]
CSc1ccc(CN2CCC(n3nccc3NC(=O)CCCc3ccccc3)CC2)cc1	inconclusive [inhibitor, partial curve, poor fit]
Cn1nccc1C(=O)N1CCN(S(=O)(=O)c2ccc(Br)s2)CC1	inactive
CCCc1nnc(NC(=O)Cn2c(=O)sc3ccccc32)s1	inconclusive [inhibitor, partial curve, poor fit]
Cn1nc([N+](=O)[O-])c(C(C#N)c2nc3ccccc3n2C)c(Cl)c1=O (stereo unspecified)	inconclusive [inhibitor, partial curve, poor fit]
Cc1ccnc(Sc2ncccc2[N+](=O)[O-])n1	inactive
Cc1nonc1C(=O)N/N=C/c1cccc(O)c1	inconclusive [inhibitor, partial curve]
COCCn1c(N)c(N(Cc2ccccc2)C(=O)CSCC(=O)Nc2ccc(OC)cc2)c(=O)[nH]c1=O	inconclusive [inhibitor, full curve, poor fit]
O=C(CSc1nc(=O)n2ccccc2n1)NCc1ccccc1Cl	inconclusive [inhibitor, partial curve]
CC[C@@]12C(=O)N(c3ccc(C)cc3)C(=O)N1[C@H](c1ccc(Br)cc1)[C@@H]1C(=O)N(C(C)(C)C)C(=O)[C@@H]12	inconclusive [inhibitor, full curve]
Clc1cccc(Cl)c1CSc1nnc(-c2ccncc2)s1	inactive
Oc1c(I)cc(I)c2cccnc12	inconclusive [inhibitor, full curve, poor fit]
O=c1[nH]c(=O)n(Cc2ccccc2)c2c1C(C(F)(F)F)(C(F)(F)F)N=C(c1ccco1)N2	inconclusive [inhibitor, partial curve]
CCc1ccccc1NC(=O)c1cc(S(=O)(=O)N(CC)c2ccccc2)ccc1F	inactive
COc1ccccc1-n1cnnc1SCC(=O)Nc1cc(C(C)(C)C)nn1-c1ccccc1	inactive
Cc1ccc(O)c(NC(=S)NC(=O)/C=C/c2ccccc2)c1	inconclusive [inhibitor, full curve, poor fit]
Cc1n[nH]c(=O)nc1NCCN(C)C	inconclusive [inhibitor, full curve, poor fit]

SMILES	Potency
NNc1nc(-c2ccccc2Cl)nc2ccccc12	inactive
C=CS(=O)(=O)c1sc(Cl)c(N2CCOCC2)c1[N+](=O)[O-]	inconclusive [inhibitor, partial curve]
O=C(NC1=NCCS1)c1ccc(-c2ccc(Cl)cc2)o1	inconclusive [inhibitor, full curve, poor fit]
CC1CCCN(c2ccc3nncn3n2)C1 (stereo unspecified)	inconclusive [inhibitor, partial curve, poor fit]
COc1ccc(NS(=O)(=O)c2cn(C)nc2C)cc1	inactive
COC(=O)c1ccc(NC(=O)CC2C(=O)N(c3ccc(Cl)cc3)C(=O)N2Cc2cccs2)cc1 (stereo unspecified)	inconclusive [inhibitor, single point]
O=C(OCC(=O)N1CCCCCC1)c1n[nH]c(=O)c2ccccc12	inconclusive [inhibitor, full curve, poor fit]
CCOC(=O)N1CCC(N2Cc3cccc(C(=O)N4CCN(C5CCCCC5)CC4)c3C2=O)CC1	inconclusive [inhibitor, full curve, poor fit]
N#Cc1ccc(/C=C/C(=O)c2ccco2)cc1	inactive
Cc1ccc(S(=O)(=O)CCC(=O)OCc2ccccc2F)cc1	inconclusive [inhibitor, single point]
COc1ccc(CCNC(=O)Cn2c(=O)n(-c3ccc(F)cc3F)c(=O)c3sccc32)cc1OC	inconclusive [inhibitor, single point]
Cc1cc(C)n2nc(SCC(=O)c3cc(C)n(-c4cc(C)on4)c3C)nc2n1	inactive
O=C1CCN(Cc2ccccc2)CCN1[C@H](CSc1ccccc1)Cc1ccccc1	inconclusive [inhibitor, partial curve, poor fit]
O=[N+]([O-])c1ccc(Oc2cccc3cccnc23)c([N+](=O)[O-])c1	inconclusive [inhibitor, single point]
CCN(CC)S(=O)(=O)c1ccc2c(c1)N(CC(=O)Nc1c(C)cccc1C)C(=O)CO2	inactive
Cc1sc2nc(C)n(/N=C/c3ccccc3O)c(=O)c2c1C	inconclusive [inhibitor, full curve, poor fit]
Cc1csc2nc(O)c(C(=O)NCc3ccc4c(c3)OCO4)c(=O)n12	inconclusive [inhibitor, partial curve]
COc1cccc(N2C(=O)NC(=O)/C(=C/c3ccc4c5c(cccc35)CC4)C2=O)c1	inconclusive [inhibitor, single point]
Cc1ccccc1NC(=S)NCc1ccc2[nH]c3c(c2c1)CCCC3	inconclusive [inhibitor, full curve]
COc1ccc2sc(-c3ccccc3OC)c(C#CCCO)c2c1	inactive
COc1ccc(S(=O)(=O)N(CC(=O)NCC2CCCO2)Cc2ccccc2)cc1C (stereo unspecified)	inconclusive [inhibitor, full curve]
CC1CCc2c(sc3nnn(Cc4ccc(F)cc4)c(=O)c23)C1 (stereo unspecified)	inactive

SMILES	Potency
COc1ccc(Nc2nc(Cl)c(C=O)s2)cc1	inconclusive [inhibitor, full curve, poor fit]
Cc1ccccc1OCCCC(=O)Nc1ccc2c(c1)OCO2	inconclusive [inhibitor, partial curve, poor fit]
COc1ccc(NC(=O)CN(C)C(=O)c2ccc(-c3cccc(C(F)(F)F)c3)o2)cc1	inactive
CC(C)Cn1c(N)c(C=O)c(=O)n(C)c1=O	inconclusive [inhibitor, single point]
CC(=O)Nc1ccc(Sc2ccccc2C(=O)O)cc1	inconclusive [inhibitor, full curve, poor fit]
CCOc1ccc(CCNC(=O)COC(=O)c2cccnc2Cl)cc1OCC	inconclusive [inhibitor, full curve]
CC(C)(C)NC(=O)c1cccc(NC(=O)c2ccc3c(c2)C(=O)N(C(C)(C)C)C3=O)c1	inconclusive [inhibitor, full curve, poor fit]
Cc1ccccc1C(=O)Nc1nnc(-c2ccc(F)cc2)o1	inconclusive [inhibitor, full curve, poor fit]
COc1cc(-c2nc(-c3cccnc3)no2)cc(OC)c1OC	inconclusive [inhibitor, partial curve, poor fit]
O=S(=O)(c1ccc(F)cc1)N1CCN(c2ncnc3c2cnn3-c2ccccc2)CC1	inconclusive [inhibitor, full curve, poor fit]
CCCc1cc(=O)oc2c3c(cc(OCC(=O)N4CCC[C@H]4C(=O)O)c12)OC(C)(C)CC3	inconclusive [inhibitor, partial curve]
O=C(CN1CCCCCCC1)Nc1ccc(Cl)cc1Cl	inconclusive [inhibitor, full curve, poor fit]
CC(C)n1cc(CN2CCCC(CNS(=O)(=O)c3cccc4cccnc34)C2)cn1 (stereo unspecified)	inconclusive [inhibitor, full curve]
Cc1noc(NS(=O)(=O)c2ccc(N/C=C/C(=O)c3ccccc3)cc2)c1C	inconclusive [inhibitor, partial curve, poor fit]
COc1ccc(C2c3ccc4ccccc4c3Oc3ncn(CCCN(C)C)c(=N)c32)cc1 (stereo unspecified)	inactive
COC(=O)N/N=C(\C)c1ccco1	inactive
C(=N\Nc1ccccn1)/c1cccnc1	inconclusive [inhibitor, full curve, poor fit]
O=C(CN1C(=O)NC2(CCc3ccccc32)C1=O)c1ccc(F)c(F)c1 (stereo unspecified)	inconclusive [inhibitor, full curve]
CN/C(=C/[N+](=O)[O-])NCCSCc1ccc(CN(C)C)o1	inconclusive [inhibitor, partial curve]
CCc1cc(C(=O)Cc2nc3ccccc3[nH]2)c(O)cc1O	inconclusive [inhibitor, full curve, poor fit]
CC(C)(C)c1ccc(-c2cc(-c3ccccc3O)[nH]n2)cc1	inconclusive [inhibitor, full curve, poor fit]
O=C(c1cccc(Cl)c1)n1nc(-c2ccco2)nc1NCc1cccs1	inactive
